Test results from article PMC4336329 (PLoS ONE, 2015).
The campaign covered roughly 310,000 compounds. About 14,000 (4.5%) showed an effect of 50% or more. Effects have a minus sign here. The list shows a part of the results.

Biological target: human ether-à-go-go-related gene (hERG) potassium channel (human, UniProt Q12809)
Test: primary screen, population patch clamp on CHO cells stably expressing hERG
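Note: peak tail current of the secondary pulse compared with the same well before compound.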

Sequence of human ether-à-go-go-related gene (hERG) potassium channel (Q12809 whole entry, looked up): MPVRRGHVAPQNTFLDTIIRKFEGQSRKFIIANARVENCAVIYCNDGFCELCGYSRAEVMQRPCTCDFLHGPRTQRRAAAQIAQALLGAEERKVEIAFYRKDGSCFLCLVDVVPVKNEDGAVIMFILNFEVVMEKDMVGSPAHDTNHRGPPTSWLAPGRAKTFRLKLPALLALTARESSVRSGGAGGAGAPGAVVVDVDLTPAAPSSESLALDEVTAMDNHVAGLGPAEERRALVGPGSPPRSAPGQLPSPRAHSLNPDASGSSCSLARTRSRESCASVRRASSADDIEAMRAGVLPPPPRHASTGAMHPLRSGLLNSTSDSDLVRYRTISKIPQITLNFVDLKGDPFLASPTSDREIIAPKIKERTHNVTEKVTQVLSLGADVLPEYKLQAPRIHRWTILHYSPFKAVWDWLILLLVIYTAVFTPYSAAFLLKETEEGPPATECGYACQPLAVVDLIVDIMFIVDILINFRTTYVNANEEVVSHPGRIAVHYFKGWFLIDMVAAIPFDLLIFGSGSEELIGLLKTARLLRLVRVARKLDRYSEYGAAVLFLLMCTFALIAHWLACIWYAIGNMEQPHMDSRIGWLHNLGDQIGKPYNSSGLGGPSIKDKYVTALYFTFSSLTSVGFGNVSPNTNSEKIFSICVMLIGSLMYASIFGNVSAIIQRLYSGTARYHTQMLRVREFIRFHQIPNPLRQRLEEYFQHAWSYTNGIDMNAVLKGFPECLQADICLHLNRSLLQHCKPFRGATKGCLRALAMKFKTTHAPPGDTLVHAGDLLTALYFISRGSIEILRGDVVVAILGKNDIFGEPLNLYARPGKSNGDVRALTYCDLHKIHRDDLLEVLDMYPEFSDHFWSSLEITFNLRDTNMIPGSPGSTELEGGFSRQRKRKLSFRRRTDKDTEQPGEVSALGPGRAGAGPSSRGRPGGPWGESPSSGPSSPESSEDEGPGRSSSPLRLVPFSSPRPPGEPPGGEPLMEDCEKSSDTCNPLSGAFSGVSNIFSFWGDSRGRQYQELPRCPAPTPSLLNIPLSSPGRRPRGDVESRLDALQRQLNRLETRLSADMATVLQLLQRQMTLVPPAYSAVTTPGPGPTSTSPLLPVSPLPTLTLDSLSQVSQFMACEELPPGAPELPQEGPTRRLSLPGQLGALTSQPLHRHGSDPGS

SMILES	hERG current change (%, negative = inhibition) at 10uM [%]
CCCCN(CCCNC(=O)c1ccc(CS(=O)(=O)c2ccc(OC)cc2)o1)Cc1ccccc1	-67.4
N=c1c(C(=O)NCC2CCCO2)cc2c(=O)n3ccccc3nc2n1C1CCCC1 (centres unmarked)	-76.9
COC(=O)c1cccc(NC(=O)c2ccc3c(c2)C(=O)N(C(C)(C)C)C3=O)c1	24.4
CCOC(=O)c1ccc(NC(=O)c2ccc3c(c2)C(=O)N(CC2CCCO2)C3=O)cc1 (centres unmarked)	-1.87
CN1CCN(c2ccc(Nc3ccnc4cc(Cl)ccc34)cc2)CC1	-28.9
CC(=O)N1C(=S)NC(=O)/C1=C1/C(=O)N(CC(=O)Nc2cccc(C)c2)c2ccccc21	14.6
Cc1nc(C(=O)N2CCCC(C(=O)c3cccc(OC(C)C)c3)C2)cs1 (centres unmarked)	-4.61
Cc1cc(C)nc(SCC(=O)c2ccc(C)c(C)c2)n1	1.66
Cc1c(-c2ncn[nH]2)sc(C#N)c1-c1ccccc1	2.45
Cc1nn(C(C)C(=O)NCCCN2CCCCC2C)c(=O)c2c1sc1ccccc12 (centres unmarked)	-5.22
O=c1c2ccccc2nc(/C=C/c2ccccc2)n1-c1ccc(O)cc1	13.8
Cc1ccsc1/C=N/NC(=O)c1cccnc1	10.8
CCC1=C(OC(=O)N(CC)CC)N2C(=O)OC(=NCC(=O)OC)[C@]2(Cc2ccccc2)[C@H]2C1=CC[C@H]1C(=O)N(C)C(=O)[C@H]12	2.27
COCCN1C(=O)C(CC(=O)Nc2ccc(C(=O)O)cc2)SC1=Nc1ccccc1 (centres unmarked)	11.6
O=C(NCCC1CCCC1)C1CCC(=O)N(CCCN2CCCC2=O)C1 (centres unmarked)	20.3
Cc1ccc(C=Nc2ccccc2C#N)s1	-7.7
O=C(NCC1CCCO1)c1ccc(CNS(=O)(=O)c2ccc(F)c(Cl)c2)cc1 (centres unmarked)	0.715
CCc1ccc(NC(=O)C2C3C=CC(C4CC34)C2C(=O)O)cc1 (centres unmarked)	-4.43
CC#CCCCC(=O)Nc1ccccc1C(=O)O	-3.63
Cc1csc(NS(=O)(=O)c2cccc([N+](=O)[O-])c2)n1	12.3
O=C(CSc1nnc(COc2ccc(Cl)cc2Cl)o1)Nc1ccccn1	12.3
O=C(NNC1=C(C(=O)C(F)(F)F)CCC1)c1ccccc1Cl	13

SMILES	hERG current change (%, negative = inhibition) at 10uM [%]
CC(C)C(=O)Nc1ccc(C(=O)NN2C(=O)c3ccccc3C2=O)cc1	9.54
COc1cccc2cc(C(=O)N(C)C3CCN(C)CC3)c(=O)oc12.Cl	6.91
COC(=O)CCCC1=CC2=CC(=O)C(C)(OC(=O)c3cccs3)C(=O)C2=CN1Cc1ccco1 (centres unmarked)	-8.14
O=C(O)C1(NS(=O)(=O)c2ccc(Cl)cc2)CCCCC1	-1.51
COc1ccc(CCNC(=O)c2ccc(Cl)cc2Cl)cc1	2.26
CCN(CC(=O)Nc1ccc(OC)cc1)C(=O)c1ccc(N2C(=O)CCC2=O)cc1	2.82
O=C(c1cc(Br)ccc1Cl)N1CCN(c2ncccn2)CC1	-12.8
CN1CCC(N(C)CC(=O)Nc2ccccc2N2CCOCC2)CC1.O=C(O)C(=O)O	-13.8
OC1CCCN(C(=S)Nc2ccc(SC(F)F)cc2)C1 (centres unmarked)	-9.96
Cc1cccc(NC(=O)CSc2nnc(-c3ccco3)o2)c1C	-4.42
CCOc1ccc(C(=O)Nc2ccc(NC(=O)c3ccccc3)cc2)cc1Br	9.48
CCn1cc(C(=O)NCCC(C)C)c(=O)c2cc(F)c(N3CCN(C(=O)c4ccco4)CC3)cc21	-11.3
CCn1nnnc1NC(=O)c1ccc2ccccc2c1	-2.9
COCCn1nnnc1C(c1ccc(OC)cc1)N1CCN(c2ccccc2F)CC1.Cl (centres unmarked)	-8.29
COCC(C)NC(=O)c1cc(-c2cccc(OC)c2)on1 (centres unmarked)	15
Cc1ccc(S(=O)(=O)N2CCCC(C(=O)NCC3CCCO3)C2)cc1 (centres unmarked)	13.9
CCOC(=O)N1CCC(NC(=O)CS(=O)(=O)Cc2nc(-c3ccccc3Cl)oc2C)CC1	-3.72
CC[C@H](C)[C@@H](C(=O)N1CCNCC1)n1cc([C@@H](N)Cc2ccc(O)cc2)nn1.Cl	9.94
CCC(C)N(C(=O)COc1ccc(-c2nnco2)cc1)C1CCS(=O)(=O)C1 (centres unmarked)	-8
CCCC(CCC)C(=O)NCCN1CCOCC1.Cl	2.7
Fc1ccc(Br)cc1C1C=C(c2ccc(Br)s2)Nc2ncnn21 (centres unmarked)	9
COc1ccccc1-c1ccc(/C=N/O)o1	11
